Among the data in PubChem BioAssay AID328 (DTP/NCI, 2004) are T/C values, retold here.

The subject of this assay is BDF1 mice, P388 leukemia ip, median survival T/C. Briefly: NCI In Vivo Anticancer Drug Screen. Data for tumor model P388 Leukemia (intraperitoneal) in B6D2F1 (BDF1) mice. As to conditions: endpoint: median survival time, higher = longer survival. In outline: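 Compound-treated tumour-bearing mice were compared with vehicle-treated controls. Survival was recorded, and the value is the treated-group measurement divided by the control-group measurement (T/C).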

Each structure is given as a SMILES string. Toxic doses and inconclusive results are not listed. A number of entries come with more than one value. The list is limited to them. An entry can have further records. The records of an entry repeat one measurement across runs, samples, wells, individuals or studies. Brackets tell where a record comes from. The letters are not those of the source and start again with each entry.

Turning to `CN(C)c1ncnc2c1ncn2C1OC(CO)C(N)C1O` (stereo unspecified), the T/C (dose: 33.0 mg/kg/injection, schedule: Q01DX009 (ip), vehicle: saline) is 100 % of control and 150 % of control.

In the case of `O=C1C=CC(=O)O1` (tested in a mixture with another compound), the T/C reads like this: (dose: 25.0 mg/kg/injection, schedule: Q01DX009 (ip), vehicle: saline) 115 % of control, 177 % of control [sample A] and 100 % of control [sample B]; (dose: 100.0 mg/kg/injection, schedule: Q01DX009 (ip), vehicle: saline) 110 % of control, 189 % of control [sample A] and 91 % of control, 115 % of control [sample B] and 94 % of control [sample C]; (dose: 100.0 mg/kg/injection, schedule: Q04DX003 (ip), vehicle: saline) 120 % of control, 121 % of control [sample A] and 100 % of control, 118 % of control [sample B] and 87 % of control [sample C] and 104 % of control [sample D]; (dose: 200.0 mg/kg/injection, schedule: Q04DX003 (ip), vehicle: saline) 102 % of control, 158 % of control [sample A] and 109 % of control, 116 % of control [sample B] and 91 % of control, 112 % of control [sample C] and 112 % of control [sample D].

For `Nc1nc(N)c2cc(CNc3ccc(C(=O)NC(CC(=O)O)C(=O)O)cc3)ccc2n1` (stereo unspecified), the T/C (dose: 12.5 mg/kg/injection, schedule: Q04DX003 (ip), vehicle: saline sonified) was 122 % of control and 192 % of control.
